Measurements taken from PubChem BioAssay (NCATS).
Where “and” joins values, the source holds several entries; their conditions need not be identical. Identical values can stand only once. The inconclusive results got no clear call from the source; some entries with a clear call stand among them for comparison. For some assays here: Potencies beside an inconclusive call are fits to weak or partial responses and may not hold up. Calls of active or inactive are those of the source. Calls follow the shape of the dose curve; as a rule, active = well fitted curve in the direction sought with a large enough effect; inconclusive = small, poorly fitted or top-dose-only effect, or another doubt; inactive = no such curve, though single readings can be large; an effect the other way counts as inactive or inconclusive.

What was measured:
[1] = P-glycoprotein substrates identified in KB-8-5-11 adenocarcinoma cell line, qHTS therapeutic library screen (AID 1346987); also: nearly all actives have a fitted effect of over 65% in size
Outline: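 Steps: plate 500 KB-8-5-11 cells/well in DMEM + 10% FCS (colchicine removed); pin compounds in dose-response; incubate 72 h, 37 degree C, 5% CO2; add CellTiter-Glo, 5 min; read luminescence.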

[2] = Primary qHTS for inhibitors of nuclear receptor binding SET domain protein 2 (NSD2) in an isogenic RCH-ACV NSD2 p.E1099K mutant (9B) (AID 1645876); also: nearly all actives have a fitted effect of over 70% in size
[3] = test system: CRL-7250; assay: Cytotoxic Profiling of Annotated Libraries Using Quantitative High-Throughput Screening (AID 1296008); settings: Five cell lines viability, CellTiter-Glo ATP luminescence, 48-72 h; max response: stronger effect = lower value; also: nearly all actives have a fitted effect of over 60% in size
Outline: (§1)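 Cytotoxicity was measured as CellTiter-Glo ATP luminescence, read after 10 min at room temperature. Compound treatment of the cells lasted 48 or 72 hr at 37 degrees Celsius in a qHTS format.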

[4] = test system: HaCat; assay: as above; settings: Five cell lines viability, CellTiter-Glo ATP luminescence, 48-72 h; max response: stronger effect = lower value
Outline: as §1

[5] = test system: KB-3-1; assay: as above; settings: Five cell lines viability, CellTiter-Glo ATP luminescence, 48-72 h; max response: stronger effect = lower value
Outline: as §1

[6] = test system: CAOV3; assay: Primary qHTS to identify gynecologic anti-cancer compounds using libraries of approved drugs and bioactive compounds (AID 1345084); settings: Gynecologic cancer cell panel viability, ATPlite luminescence, 48 h; activity change, negative = cytotoxicity: at 57.5 µM (top of the series); also: nearly all actives have a fitted effect of over 55% in size
Outline: (§2)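 Measured: luminescence after ATPlite addition (15 min, RT). Exposure: 48 h, 37 C, 5% CO2.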

[7] = test system: CASKI; assay: as above; settings: Gynecologic cancer cell panel viability, ATPlite luminescence, 48 h; series mostly up to 57.5 µM
Outline: as §2

[8] = test system: Es-2; assay: as above; settings: Gynecologic cancer cell panel viability, ATPlite luminescence, 48 h; series mostly up to 57.5 µM
Outline: as §2

[9] = test system: OV90; assay: as above; settings: Gynecologic cancer cell panel viability, ATPlite luminescence, 48 h; series mostly up to 57.5 µM
Outline: as §2

[10] = test system: PA-1; assay: as above; settings: Gynecologic cancer cell panel viability, ATPlite luminescence, 48 h; series mostly up to 57.5 µM
Outline: as §2

[11] = test system: SKOV3; assay: as above; settings: Gynecologic cancer cell panel viability, ATPlite luminescence, 48 h; series mostly up to 57.5 µM
Outline: as §2

[12] = test system: Tov112D; assay: as above; settings: Gynecologic cancer cell panel viability, ATPlite luminescence, 48 h; series mostly up to 57.5 µM
Outline: as §2

[13] = test system: NIH3T3; assay: Cytotoxic Profiling of Annotated Libraries Using Quantitative High-Throughput Screening (AID 1296008); settings: Five cell lines viability, CellTiter-Glo ATP luminescence, 48-72 h; max response: stronger effect = lower value; also: nearly all actives have a fitted effect of over 60% in size
Outline: as §1

[14] = test system: HeLa; assay: Primary qHTS to identify gynecologic anti-cancer compounds using libraries of approved drugs and bioactive compounds (AID 1345084); settings: Gynecologic cancer cell panel viability, ATPlite luminescence, 48 h; activity change, negative = cytotoxicity: at 57.5 µM (top of the series); also: nearly all actives have a fitted effect of over 55% in size
Outline: as §2

[15] = test system: Tov-21-G; assay: as above; settings: Gynecologic cancer cell panel viability, ATPlite luminescence, 48 h; activity change, negative = cytotoxicity: at 57.5 µM (top of the series) unless noted
Outline: as §2

[16] = Primary qHTS for inhibitors of nuclear receptor binding SET domain protein 2 (NSD2) in an RCH-ACV wild type WT cells (2C) (AID 1645877); settings: activity change, negative = cell killing: at 44.9 µM (top of the series) unless noted; also: nearly all actives have a fitted effect of over 70% in size
[17] = test system: C33A; assay: Primary qHTS to identify gynecologic anti-cancer compounds using libraries of approved drugs and bioactive compounds (AID 1345084); settings: Gynecologic cancer cell panel viability, ATPlite luminescence, 48 h; series mostly up to 57.5 µM; also: nearly all actives have a fitted effect of over 55% in size
Outline: as §2

[18] = test system: Hek293T; assay: as above; settings: Gynecologic cancer cell panel viability, ATPlite luminescence, 48 h, control line for the selectivity index; activity change, negative = cytotoxicity: at 57.5 µM (top of the series) unless noted
Outline: as §2

[19] = test system: JEG-3; assay: as above; settings: Gynecologic cancer cell panel viability, ATPlite luminescence, 48 h; series mostly up to 57.5 µM
Outline: as §2
Potency is read from the fitted curve at half-maximal effect; tags tell the direction and shape of the fitted curve.

CCN1CCN(Cc2ccc(-c3cc4c(NC(C)c5ccccc5)ncnc4[nH]3)cc2)CC1 (configuration not stated)
Potency [1]: inconclusive: 18.4 µM [inhibitor, single point] | Potency [2]: active: 4.59 µM | Potency [3]: inconclusive: 29.1 µM [inhibitor, single point] | Potency [4]: active: 2.91 µM | Potency [5]: inconclusive: 23.1 µM [inhibitor, single point] | Potency [6]: inconclusive: 1.78 µM [cytotoxic, partial curve, poor fit] | Potency [7]: inconclusive: 17.8 µM [cytotoxic, partial curve, poor fit] | Potency [8]: inactive | Potency [9]: inconclusive: 8.91 µM [cytotoxic, partial curve, poor fit] | Potency [10]: inconclusive: 25.1 µM [cytotoxic, single point] | Potency [11]: active: 3.55 µM | Potency [12]: inconclusive: 28.2 µM [cytotoxic, single point]

COc1cc(C(=O)N2CCC(N3CCN(C)CC3)CC2)ccc1Nc1ncc2c(n1)N(C)c1ccccc1C(=O)N2C
Potency [1]: inconclusive: 23.5 µM [inhibitor, single point] and inconclusive: 29.1 µM [inhibitor, single point] | Potency [3]: inconclusive: 4.69 µM [inhibitor, full curve] | Potency [4]: inconclusive: 13.2 µM [inhibitor, partial curve] and inconclusive: 20.6 µM [inhibitor, single point] | Potency [13]: inconclusive: 14.8 µM [inhibitor, partial curve] and active: 13 µM | Potency [6]: inconclusive: 25.1 µM [cytotoxic, single point] | Potency [7]: inconclusive: 8.91 µM [cytotoxic, partial curve] | Potency [14]: inconclusive: 7.08 µM [cytotoxic, partial curve] | Potency [10]: inconclusive: 39.8 µM [cytotoxic, single point] | Potency [11]: active: 8.91 µM | Potency [15]: inconclusive: 39.8 µM [cytotoxic, single point] | Potency [12]: inconclusive: 14.1 µM [cytotoxic, partial curve, poor fit]

C[C@H](CN(C)C)Oc1nc(Nc2cc3cccc(Cl)c3cn2)cnc1C#N
Potency [1]: active: 2.91 µM | Potency [16]: active: 409 nM and active: 934 nM | Potency [3]: inconclusive: 20.6 µM [inhibitor, partial curve] | Potency [4]: inconclusive: 16.4 µM [inhibitor, single point] | Potency [5]: inconclusive: 9.2 µM [inhibitor, partial curve] | Potency [17]: inactive | Potency [8]: inconclusive: 3.98 µM [cytotoxic, partial curve, poor fit] | Potency [18]: inconclusive: 10 µM [cytotoxic, partial curve, poor fit] | Potency [11]: active: 12.6 µM | Potency [15]: inconclusive: 0.631 µM [cytotoxic, full curve]

CCn1cc(-c2ccnc3[nH]c(-c4cccc(CN(C)C)c4)cc23)c(-c2ccc(NC(=O)N(C)C)cc2)n1
Potency [1]: inconclusive: 11.8 µM [inhibitor, full curve] and inconclusive: 6.32 µM [inhibitor, partial curve] | Potency [16]: active: 36.6 nM and active: 37.2 nM | Potency [3]: inconclusive: 6.32 µM [inhibitor, partial curve, poor fit] | Potency [4]: inconclusive: 0.132 µM [inhibitor, full curve, poor fit] | Potency [13]: active: 3.72 µM and active: 632 nM | Potency [7]: inconclusive: 2.82 µM [cytotoxic, partial curve, poor fit] | Potency [8]: inconclusive: 15.8 µM [cytotoxic, single point] | Potency [14]: inconclusive: 3.16 µM [cytotoxic, partial curve, poor fit] | Potency [19]: inconclusive: 12.6 µM [cytotoxic, partial curve, poor fit] | Potency [9]: inconclusive: 17.8 µM [cytotoxic, single point] | Potency [10]: inconclusive: 7.94 µM [cytotoxic, partial curve, poor fit] | Potency [11]: inconclusive: 5.62 µM [cytotoxic, partial curve, poor fit] | Potency [15]: inconclusive: 5.62 µM [cytotoxic, partial curve] | Potency [12]: inconclusive: 2.82 µM [cytotoxic, partial curve, poor fit]

COc1ccc(Oc2c(Cl)cnn(-c3cc(C)cc(C)c3)c2=O)cc1
Potency [1]: inconclusive: 20.6 µM [inhibitor, single point] | Potency [2]: active: 11.5 µM | Potency [3]: inconclusive: 23.1 µM [inhibitor, single point] | Potency [4]: inconclusive: 32.6 µM [inhibitor, partial curve, poor fit] | Potency [5]: inconclusive: 29.1 µM [inhibitor, single point] | Potency [17]: inconclusive: 39.8 µM [cytotoxic, single point] | Potency [6]: active: 28.2 µM | Potency [7]: inconclusive: 31.6 µM [cytotoxic, single point] | Potency [18]: inactive | Potency [19]: inconclusive: 31.6 µM [cytotoxic, single point] | Potency [9]: inconclusive: 39.8 µM [cytotoxic, single point] | Potency [10]: inconclusive: 39.8 µM [cytotoxic, single point] | Potency [11]: inconclusive: 35.5 µM [cytotoxic, single point] | Potency [15]: inconclusive: 35.5 µM [cytotoxic, single point] | Potency [12]: inconclusive: 39.8 µM [cytotoxic, single point]
